{"source": "the supplement of paper PMC12423691", "binders": {"B1": {"name": "CBFA2T3, O75081 (protein)", "chain": "MPASRLRDRAASSASGSTCGSMSQTHPVLESGLLASAGCSAPRGPRKGGPAPVDRKAKASAMPDSPAEVKTQPRSTPPSMPPPPPAASQGATRPPSFTPHTHREDGPATLPHGRFHGCLKWSMVCLLMNGSSHSPTAINGAPCTPNGFSNGPATSSTASLSTQHLPPACGARQLSKLKRFLTTLQQFGSDISPEIGERVRTLVLGLVNSTLTIEEFHSKLQEATNFPLRPFVIPFLKANLPLLQRELLHCARLAKQTPAQYLAQHEQLLLDASASSPIDSSELLLEVNENGKRRTPDRTKENGSDRDPLHPEHLSKRPCTLNPAQRYSPSNGPPQPTPPPHYRLEDIAMAHHFRDAYRHPDPRELRERHRPLVVPGSRQEEVIDHKLTEREWAEEWKHLNNLLNCIMDMVEKTRRSLTVLRRCQEADREELNHWARRYSDAEDTKKGPAPAAARPRSSSAGPEGPQLDVPREFLPRTLTGYVPEDIWRKAEEAVNEVKRQAMSELQKAVSDAERKAHELITTERAKMERALAEAKRQASEDALTVINQQEDSSESCWNCGRKASETCSGCNAARYCGSFCQHRDWEKHHHVCGQSLQGPTAVVADPVPGPPEAAHSLGPSLPVGAASPSEAGSAGPSRPGSPSPPGPLDTVPR"}, "B2": {"name": "RAD21, O60216 (protein)", "chain": "MFYAHFVLSKRGPLAKIWLAAHWDKKLTKAHVFECNLESSVESIISPKVKMALRTSGHLLLGVVRIYHRKAKYLLADCNEAFIKIKMAFRPGVVDLPEENREAAYNAITLPEEFHDFDQPLPDLDDIDVAQQFSLNQSRVEEITMREEVGNISILQENDFGDFGMDDREIMREGSAFEDDDMLVSTTTSNLLLESEQSTSNLNEKINHLEYEDQYKDDNFGEGNDGGILDDKLISNNDGGIFDDPPALSEAGVMLPEQPAHDDMDEDDNVSMGGPDSPDSVDPVEPMPTMTDQTTLVPNEEEAFALEPIDITVKETKAKRKRKLIVDSVKELDSKTIRAQLSDYSDIVTTLDLAPPTKKLMMWKETGGVEKLFSLPAQPLWNNRLLKLFTRCLTPLVPEDLRKRRKGGEADNLDEFLKEFENPEVPREDQQQQHQQRDVIDEPIIEEPSRLQESVMEASRTNIDESAMPPPPPQGVKRKAGQIDPEPVMPPQQVEQMEIPPVELPPEEPPNICQLIPELELLPEKEKEKEKEKEDDEEEEDEDASGGDQDQEERRWNKRTQQMLHGLQRALAKTGAESISLLELCRNTNRKQAAAKFYSFLVLKKQQAIELTQEEPYSDIIATPGPRFHII"}, "B3": {"name": "TRIB1, Q96RU8 (protein)", "chain": "MRVGPVRSAMSGASQPRGPALLFPATRGVPAKRLLDADDAAAVAAKCPRLSECSSPPDYLSPPGSPCSPQPPPAAPGAGGGSGSAPGPSRIADYLLLPLAEREHVSRALCIHTGRELRCKVFPIKHYQDKIRPYIQLPSHSNITGIVEVILGETKAYVFFEKDFGDMHSYVRSRKRLREEEAARLFKQIVSAVAHCHQSAIVLGDLKLRKFVFSTEERTQLRLESLEDTHIMKGEDDALSDKHGCPAYVSPEILNTTGTYSGKAADVWSLGVMLYTLLVGRYPFHDSDPSALFSKIRRGQFCIPEHISPKARCLIRSLLRREPSERLTAPEILLHPWFESVLEPGYIDSEIGTSDQIVPEYQEDSDISSFFC"}, "B4": {"name": "ASCL2, Q99929 (protein)", "chain": "MDGGTLPRSAPPAPPVPVGCAARRRPASPELLRCSRRRRPATAETGGGAAAVARRNERERNRVKLVNLGFQALRQHVPHGGASKKLSKVETLRSAVEYIRALQRLLAEHDAVRNALAGGLRPQAVRPSAPRGPPGTTPVAASPSRASSSPGRGGSSEPGSPRSAYSSDDSGCEGALSPAERELLDFSSWLGGY"}, "B5": {"name": "NKX3-1, Q99801 (protein)", "chain": "MLRVPEPRPGEAKAEGAAPPTPSKPLTSFLIQDILRDGAQRQGGRTSSQRQRDPEPEPEPEPEGGRSRAGAQNDQLSTGPRAAPEEAETLAETEPERHLGSYLLDSENTSGALPRLPQTPKQPQKRSRAAFSHTQVIELERKFSHQKYLSAPERAHLAKNLKLTETQVKIWFQNRRYKTKRKQLSSELGDLEKHSSLPALKEEAFSRASLVSVYNSYPYYPYLYCVGSWSPAFW"}, "B6": {"name": "FLI1, Q01543 (protein)", "chain": "MDGTIKEALSVVSDDQSLFDSAYGAAAHLPKADMTASGSPDYGQPHKINPLPPQQEWINQPVRVNVKREYDHMNGSRESPVDCSVSKCSKLVGGGESNPMNYNSYMDEKNGPPPPNMTTNERRVIVPADPTLWTQEHVRQWLEWAIKEYSLMEIDTSFFQNMDGKELCKMNKEDFLRATTLYNTEVLLSHLSYLRESSLLAYNTTSHTDQSSRLSVKEDPSYDSVRRGAWGNNMNSGLNKSPPLGGAQTISKNTEQRPQPDPYQILGPTSSRLANPGSGQIQLWQFLLELLSDSANASCITWEGTNGEFKMTDPDEVARRWGERKSKPNMNYDKLSRALRYYYDKNIMTKVHGKRYAYKFDFHGIAQALQPHPTESSMYKYPSDISYMPSYHAHQQKVNFVPPHPSSMPVTSSSFFGAASQYWTSPTGGIYPNPNVPRHPNTHVPSHLGSYY"}, "B7": {"name": "FOXR1, Q6PIV2 (protein)", "chain": "MGNELFLAFTTSHLPLAEQKLARYKLRIVKPPKLPLEKKPNPDKDGPDYEPNLWMWVNPNIVYPPGKLEVSGRRKREDLTSTLPSSQPPQKEEDASCSEAAGVESLSQSSSKRSPPRKRFAFSPSTWELTEEEEAEDQEDSSSMALPSPHKRAPLQSRRLRQASSQAGRLWSRPPLNYFHLIALALRNSSPCGLNVQQIYSFTRKHFPFFRTAPEGWKNTVRHNLCFRDSFEKVPVSMQGGASTRPRSCLWKLTEEGHRRFAEEARALASTRLESIQQCMSQPDVMPFLFDL"}, "B8": {"name": "RB1, P06400 (protein)", "chain": "MPPKTPRKTAATAAAAAAEPPAPPPPPPPEEDPEQDSGPEDLPLVRLEFEETEEPDFTALCQKLKIPDHVRERAWLTWEKVSSVDGVLGGYIQKKKELWGICIFIAAVDLDEMSFTFTELQKNIEISVHKFFNLLKEIDTSTKVDNAMSRLLKKYDVLFALFSKLERTCELIYLTQPSSSISTEINSALVLKVSWITFLLAKGEVLQMEDDLVISFQLMLCVLDYFIKLSPPMLLKEPYKTAVIPINGSPRTPRRGQNRSARIAKQLENDTRIIEVLCKEHECNIDEVKNVYFKNFIPFMNSLGLVTSNGLPEVENLSKRYEEIYLKNKDLDARLFLDHDKTLQTDSIDSFETQRTPRKSNLDEEVNVIPPHTPVRTVMNTIQQLMMILNSASDQPSENLISYFNNCTVNPKESILKRVKDIGYIFKEKFAKAVGQGCVEIGSQRYKLGVRLYYRVMESMLKSEEERLSIQNFSKLLNDNIFHMSLLACALEVVMATYSRSTSQNLDSGTDLSFPWILNVLNLKAFDFYKVIESFIKAEGNLTREMIKHLERCEHRIMESLAWLSDSPLFDLIKQSKDREGPTDHLESACPLNLPLQNNHTAADMYLSPVRSPKKKGSTTRVNSTANAETQATSAFQTQKPLKSTSLSLFYKKVYRLAYLRLNTLCERLLSEHPELEHIIWTLFQHTLQNEYELMRDRHLDQIMMCSMYGICKVKNIDLKFKIIVTAYKDLPHAVQETFKRVLIKEEEYDSIIVFYNSVFMQRLKTNILQYASTRPPTLSPIPHIPRSPYKFPSSPLRIPGGNIYISPLKSPYKISEGLPTPTKMTPRSRILVSIGESFGTSEKFQKINQMVCNSDRVLKRSAEGSNPPKPLKKLRFDIEGSDEADGSKHLPGESKFQQKLAEMTSTRTRMQKQKMNDSMDTSNKEEK"}, "B9": {"name": "CDX4, O14627 (protein)", "chain": "MYGSCLLEKEAGMYPGTLMSPGGDGTAGTGGTGGGGSPMPASNFAAAPAFSHYMGYPHMPSMDPHWPSLGVWGSPYSPPREDWSVYPGPSSTMGTVPVNDVTSSPAAFCSTDYSNLGPVGGGTSGSSLPGQAGGSLVPTDAGAAKASSPSRSRHSPYAWMRKTVQVTGKTRTKEKYRVVYTDHQRLELEKEFHCNRYITIQRKSELAVNLGLSERQVKIWFQNRRAKERKMIKKKISQFENSGGSVQSDSDSISPGELPNTFFTTPSAVRGFQPIEIQQVIVSE"}, "B10": {"name": "KDM5A, P29375 (protein)", "chain": "MAGVGPGGYAAEFVPPPECPVFEPSWEEFTDPLSFIGRIRPLAEKTGICKIRPPKDWQPPFACEVKSFRFTPRVQRLNELEAMTRVRLDFLDQLAKFWELQGSTLKIPVVERKILDLYALSKIVASKGGFEMVTKEKKWSKVGSRLGYLPGKGTGSLLKSHYERILYPYELFQSGVSLMGVQMPNLDLKEKVEPEVLSTDTQTSPEPGTRMNILPKRTRRVKTQSESGDVSRNTELKKLQIFGAGPKVVGLAMGTKDKEDEVTRRRKVTNRSDAFNMQMRQRKGTLSVNFVDLYVCMFCGRGNNEDKLLLCDGCDDSYHTFCLIPPLPDVPKGDWRCPKCVAEECSKPREAFGFEQAVREYTLQSFGEMADNFKSDYFNMPVHMVPTELVEKEFWRLVSSIEEDVIVEYGADISSKDFGSGFPVKDGRRKILPEEEEYALSGWNLNNMPVLEQSVLAHINVDISGMKVPWLYVGMCFSSFCWHIEDHWSYSINYLHWGEPKTWYGVPSHAAEQLEEVMRELAPELFESQPDLLHQLVTIMNPNVLMEHGVPVYRTNQCAGEFVVTFPRAYHSGFNQGYNFAEAVNFCTADWLPIGRQCVNHYRRLRRHCVFSHEELIFKMAADPECLDVGLAAMVCKELTLMTEEETRLRESVVQMGVLMSEEEVFELVPDDERQCSACRTTCFLSALTCSCNPERLVCLYHPTDLCPCPMQKKCLRYRYPLEDLPSLLYGVKVRAQSYDTWVSRVTEALSANFNHKKDLIELRVMLEDAEDRKYPENDLFRKLRDAVKEAETCASVAQLLLSKKQKHRQSPDSGRTRTKLTVEELKAFVQQLFSLPCVISQARQVKNLLDDVEEFHERAQEAMMDETPDSSKLQMLIDMGSSLYVELPELPRLKQELQQARWLDEVRLTLSDPQQVTLDVMKKLIDSGVGLAPHHAVEKAMAELQELLTVSERWEEKAKVCLQARPRHSVASLESIVNEAKNIPAFLPNVLSLKEALQKAREWTAKVEAIQSGSNYAYLEQLESLSAKGRPIPVRLEALPQVESQVAAARAWRERTGRTFLKKNSSHTLLQVLSPRTDIGVYGSGKNRRKKVKELIEKEKEKDLDLEPLSDLEEGLEETRDTAMVVAVFKEREQKEIEAMHSLRAANLAKMTMVDRIEEVKFCICRKTASGFMLQCELCKDWFHNSCVPLPKSSSQKKGSSWQAKEVKFLCPLCMRSRRPRLETILSLLVSLQKLPVRLPEGEALQCLTERAMSWQDRARQALATDELSSALAKLSVLSQRMVEQAAREKTEKIISAELQKAAANPDLQGHLPSFQQSAFNRVVSSVSSSPRQTMDYDDEETDSDEDIRETYGYDMKDTASVKSSSSLEPNLFCDEEIPIKSEEVVTHMWTAPSFCAEHAYSSASKSCSQGSSTPRKQPRKSPLVPRSLEPPVLELSPGAKAQLEELMMVGDLLEVSLDETQHIWRILQATHPPSEDRFLHIMEDDSMEEKPLKVKGKDSSEKKRKRKLEKVEQLFGEGKQKSKELKKMDKPRKKKLKLGADKSKELNKLAKKLAKEEERKKKKEKAAAAKVELVKESTEKKREKKVLDIPSKYDWSGAEESDDENAVCAAQNCQRPCKDKVDWVQCDGGCDEWFHQVCVGVSPEMAENEDYICINCAKKQGPVSPGPAPPPSFIMSYKLPMEDLKETS"}}, "note": "Some of the results follow. Binding of human transcription factors and regulators to the viral nucleoprotein by AlphaScreen, crude cell-free proteins, amounts not normalised, one pass. Fold of the Venus control; higher = more signal. No active / inactive call. Single-pass screen; sequences are the whole Swiss-Prot entries looked up by name.", "data": [{"molecular_target": "nucleoprotein N of Crimean-Congo hemorrhagic fever virus", "experiment": "AlphaScreen luminescence signal relative to Venus negative control (fold); higher = stronger binding to CCHFV N", "protocol": "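AlphaScreen binding of cell-free made, FLAG-GST-tagged human transcription factors and regulators (crude translation products) to biotinylated N protein; signal as fold of the FLAG-GST-Venus control. One pass.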", "values": [{"binder": "B1", "AlphaScreen luminescence signal": 1.58}, {"binder": "B2", "AlphaScreen luminescence signal": 1.72}, {"binder": "B3", "AlphaScreen luminescence signal": 1.77}, {"binder": "B4", "AlphaScreen luminescence signal": 9.91}, {"binder": "B5", "AlphaScreen luminescence signal": 1.63}, {"binder": "B6", "AlphaScreen luminescence signal": 2.23}, {"binder": "B7", "AlphaScreen luminescence signal": 5.3}, {"binder": "B8", "AlphaScreen luminescence signal": 8.09}, {"binder": "B9", "AlphaScreen luminescence signal": 4.93}, {"binder": "B10", "AlphaScreen luminescence signal": 3.63}]}]}
